Assay results as given in paper PMC4336329 (PLoS ONE, 2015).
In all, about 310,000 compounds went through this assay and about 14,000 (4.5%) showed an effect of 50% or more. The effect is printed as a negative number. Some of the results follow.

molecular target: human ether-à-go-go-related gene (hERG) potassium channel (human, UniProt Q12809); experiment: primary screen, population patch clamp on CHO cells stably expressing hERG
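Further: peak tail current of the secondary pulse compared with the same well before compound.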

human ether-à-go-go-related gene (hERG) potassium channel, sequence (Q12809 whole entry, looked up): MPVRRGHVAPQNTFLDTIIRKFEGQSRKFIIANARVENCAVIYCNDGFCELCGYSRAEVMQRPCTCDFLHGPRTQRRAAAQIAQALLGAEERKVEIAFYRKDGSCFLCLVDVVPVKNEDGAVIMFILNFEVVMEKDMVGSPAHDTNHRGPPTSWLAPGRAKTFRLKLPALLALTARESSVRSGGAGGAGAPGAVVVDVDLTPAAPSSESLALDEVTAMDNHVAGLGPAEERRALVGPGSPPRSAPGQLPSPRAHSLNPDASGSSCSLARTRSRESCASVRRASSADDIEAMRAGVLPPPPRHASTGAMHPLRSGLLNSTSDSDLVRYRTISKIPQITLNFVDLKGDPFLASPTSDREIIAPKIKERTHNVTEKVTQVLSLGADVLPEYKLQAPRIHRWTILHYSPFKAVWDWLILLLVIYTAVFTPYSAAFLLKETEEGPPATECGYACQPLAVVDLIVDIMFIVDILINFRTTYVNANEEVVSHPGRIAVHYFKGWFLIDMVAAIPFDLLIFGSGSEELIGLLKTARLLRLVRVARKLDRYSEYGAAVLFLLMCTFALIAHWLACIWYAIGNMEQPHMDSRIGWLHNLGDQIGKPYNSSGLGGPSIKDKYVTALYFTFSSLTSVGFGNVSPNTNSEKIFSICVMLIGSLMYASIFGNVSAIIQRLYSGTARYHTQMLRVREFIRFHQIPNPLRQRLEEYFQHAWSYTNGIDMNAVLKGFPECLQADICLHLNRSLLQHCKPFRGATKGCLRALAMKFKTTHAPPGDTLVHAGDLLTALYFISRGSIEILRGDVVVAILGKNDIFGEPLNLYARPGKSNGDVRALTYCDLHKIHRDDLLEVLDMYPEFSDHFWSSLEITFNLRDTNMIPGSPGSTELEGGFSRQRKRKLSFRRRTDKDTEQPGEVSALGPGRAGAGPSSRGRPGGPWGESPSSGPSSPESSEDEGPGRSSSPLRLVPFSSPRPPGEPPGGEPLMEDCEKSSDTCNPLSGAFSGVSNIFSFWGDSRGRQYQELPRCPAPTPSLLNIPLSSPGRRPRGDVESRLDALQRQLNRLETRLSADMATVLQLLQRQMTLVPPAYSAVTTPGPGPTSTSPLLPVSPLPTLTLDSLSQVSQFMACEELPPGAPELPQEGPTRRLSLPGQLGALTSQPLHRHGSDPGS

| Compound | hERG current change (%, negative = inhibition) at 10uM |
| --- | --- |
| COc1ccc(NC(=O)CSc2nnnn2C2CC2)cc1S(=O)(=O)N1CCOCC1 | -7.49% |
| Cl.Clc1ccc2sc(C3CCNCC3)nc2c1 | 9.77% |
| O=C(O)c1ccccc1-c1ccccc1C(=O)Nc1ccc(F)cc1 | 4.38% |
| Nc1ccc(Oc2ccc(F)cc2)nc1 | -1.88% |
| O=C(COc1ccc(Br)cc1Cl)NC(=S)N1CCc2ccccc21 | 21.7% |
| Cc1c(CCC(=O)O)c(=O)oc2cc3occ(-c4ccc(Br)cc4)c3cc12 | 22.1% |
| O=C(NCc1ccc(F)cc1)C1CCCN(C(=O)Nc2ccc(F)cc2)C1 (stereo not drawn) | -23.7% |
| CCOC(=O)c1[nH]c(C)c(/C(O)=C2\C(=O)C(=O)N(CCN3CCOCC3)C2c2cccs2)c1C (stereo not drawn) | -3.77% |
| CC(=O)N1CCOc2ccc(S(=O)(=O)N3CCC(C(=O)Nc4ccccc4F)CC3)cc21 | 5.31% |
| COc1ccc(/C=N/NS(C)(=O)=O)c(OC)c1 | -0.814% |
| COCCn1nc2cc(C(=O)NCC34CC5CC(CC(C5)C3)C4)ccc2c1OC | -9.01% |
| CCCSc1nc2c3c(sc2c(=O)[nH]1)CC(C)(CC)OC3 (stereo not drawn) | 4.12% |
| CN(C[C@H](Cc1ccccc1)N(C[C@H](Cc1ccccc1)N(CCC(C)(C)C)N=O)N=O)N=O.[Na+] | 13.9% |
| CC(C)OCCCNC(=S)Nc1ccc(S(N)(=O)=O)cc1 | 21.3% |
| CN(CC(=O)Nc1ccc(F)cc1)C(=O)Cc1ccsc1 | -0.977% |
| Cc1cc(Br)cnc1NC(=S)Nc1ccc(F)cc1F | 3.75% |
| CCOC(=O)N1CCN(CC(=O)N2CCC(C(N)=O)CC2)CC1 | 4.42% |
| O=C(CN1CCCCCC1)Nc1ccc(S(=O)(=O)N2CCCCC2)cc1 | -38.7% |
| O=C(CN1CCN(c2ccccc2F)CC1)c1ccc(O)cc1O | 14.2% |
| O=C(Nc1ccc(Cl)c([N+](=O)[O-])c1)c1cnccn1 | -10.4% |
| CC(=O)O.COc1ccc(C2Nc3ccccc3C(=O)N2Cc2ccco2)cc1CN1C(=O)c2ccccc2C1=O (stereo not drawn) | -11.4% |
| CCOc1cc(N2CCOCC2)c(OCC)cc1NC(=O)CSc1ccccc1C(=O)O | 5.72% |
| CC1(C)CC(=O)c2sc(NC(=O)c3ccc4ncsc4c3)nc2C1 | 3.42% |
| Cc1ccc(C(=O)NC(=S)NCc2cccnc2)c(C)c1 | 4.09% |
| CCc1c(C(=O)NCc2ccc3c(c2)OCO3)[nH]c(C)c1C(C)=O | -6.95% |
| COc1ccc(-c2nn(-c3ccccc3)cc2CN2CCCO2)c(F)c1 | 3.95% |
| Cc1oc(/N=C/c2ccccc2)c(C#N)c1C | 28.2% |

| Compound | hERG current change (%, negative = inhibition) at 10uM |
| --- | --- |
| Cc1noc(C)c1C(=O)NCCC1=CCCCC1 | -3.97% |
| Cc1nnnn1/C(=C\c1ccccc1)C(=O)OCC(=O)Nc1cccc(S(=O)(=O)N(C)C)c1 | -26.3% |
| COc1cccc(CNC(=O)CSc2cc(=O)n(C)c3ccccc23)c1 | 2.52% |
| CC(=O)c1oc2ccccc2c1NC(=O)CN1CCCCC1.Cl | 7.19% |
| Cc1ccc(CN2CC34C=CC(O3)C(C(=O)NCc3ccc5c(c3)OCO5)C4C2=O)cc1 (stereo not drawn) | -31.6% |
| CCn1c(SCC(=O)NNC(=O)c2ccc(OC)cc2)nnc1-c1ccco1 | 19.5% |
| CCCCCC(=O)Nc1c(-c2cccs2)c(=O)c2ccccc2n1C | -12% |
| COCCCN1C(=O)C(=O)/C(=C(/O)c2ccc(OC(C)C)cc2)C1c1ccc(O)c(OC)c1 (stereo not drawn) | 3.66% |
| NC(=O)c1nsc(C(=O)N(Cc2cccnc2)C(C(=O)NCc2ccccc2)c2ccc(O)cc2)c1N (stereo not drawn) | 10.3% |
| Cn1c(=O)c(C(=O)COC(=O)c2cc(C3CC3)nc3ccccc23)c(N)n(Cc2ccccc2)c1=O | 13.8% |
| Cc1cc(NS(=O)(=O)c2ccc(NC(=O)CSc3nc4ncc(Br)cc4[nH]3)cc2)nc(C)n1 | 20.8% |
| CC(=O)Nc1ccc(NC(=S)NC(=O)/C=C/c2ccccc2)cc1 | 9.8% |
| CC1CCC(NC(=O)c2ccc(CS(=O)(=O)Cc3ccccc3F)o2)CC1 (stereo not drawn) | -36.5% |
| O=C(C1=C[C@H](c2csc3ccccc23)C[C@H](OCc2ccc(CO)cc2)O1)N1CCCCCCC1 | -15.1% |
| COc1cc(NC(=O)CSc2nnc(NC(C)C)s2)cc(OC)c1OC | 15% |
| CCCc1nc(C(C)(C)O)c(C(=O)O)n1Cc1ccc(-c2ccccc2-c2nn[nH]n2)cc1 | 2.56% |
| CN1CCN(c2ccc(NC(=O)c3cccs3)cc2)CC1 | 18% |
| Cc1cc(C)cc(NC(=O)CSc2nnc(NC(=O)C3CC3)s2)c1 | 14.5% |
| O=C(Nc1cc(S(=O)(=O)N2CCOCC2)ccc1N1CCOCC1)c1cnccn1 | -42.7% |
| O=c1[nH]c(=O)c2nc3c4ccccc4c4ccccc4c3nc2[nH]1 | 4.75% |
| COc1ccc(CCn2c(SCCN3CCCCC3)nc3ccccc3c2=O)cc1OC | -53.3% |
| O=C(COC(=O)Cc1ccc(F)cc1)NC1CCCCC1 | 12.2% |
| CN(CCCC(=O)NCc1ccccc1)S(=O)(=O)c1ccc([N+](=O)[O-])cc1 | -65.6% |
| CCOc1ccc(CCNC(=O)c2cc(-c3ccccc3)c(N3CCOCC3)s2)cc1 | 0.333% |
| CC1(C)Oc2cc(N)c([N+](=O)[O-])cc2O1 | 9.56% |
| CCC1CCCCN1Cc1nc2c(c(=O)n(C)c(=O)n2C)n1Cc1ccccc1 (stereo not drawn) | -36.6% |
| CCOC(=O)c1c(S(=O)(=O)N2CCCC(C(=O)Nc3cccc(C)n3)C2)c(C)n(C)c1C (stereo not drawn) | -24.4% |
